# Measurements from PubChem BioAssay AID485344 (National Center for Advancing Translational Sciences (NCATS), 2010).
# In all, about 340,000 compounds went through this assay and about 6,900 (2%) were called active. No stated cut-off is given here; in the data, active means inhibition above about 30%; inactive means below that, where a call was filed. The list shows a part of the results, in another mix than the full data. The source gives no active or inactive call for entries shown without one.
# Target: D(2) dopamine receptor (Homo sapiens) (UniProt P14416)
# UniProt P14416, sequence (P14416 whole entry, looked up): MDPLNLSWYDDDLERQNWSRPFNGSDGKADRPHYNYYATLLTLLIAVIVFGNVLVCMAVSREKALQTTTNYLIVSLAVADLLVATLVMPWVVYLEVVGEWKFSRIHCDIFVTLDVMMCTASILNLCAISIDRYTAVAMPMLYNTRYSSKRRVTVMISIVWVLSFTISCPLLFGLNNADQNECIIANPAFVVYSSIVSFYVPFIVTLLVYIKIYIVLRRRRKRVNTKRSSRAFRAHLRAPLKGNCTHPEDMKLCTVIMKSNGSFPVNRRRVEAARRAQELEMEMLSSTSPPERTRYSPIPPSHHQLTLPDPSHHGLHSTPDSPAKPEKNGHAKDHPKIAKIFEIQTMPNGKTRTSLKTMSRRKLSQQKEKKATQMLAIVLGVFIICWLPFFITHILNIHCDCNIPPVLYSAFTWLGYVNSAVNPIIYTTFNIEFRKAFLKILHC
# Assay: HTS Assay for Allosteric Antagonists of the Human D2 Dopamine Receptor: Primary Screen for Antagonists; further: 0% is about no effect
# Details: HEK293 TREx D2 cells, calcium flux, dopamine EC80; at 10 µM; stronger effect = higher value
# Outline: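 Read-out: kinetic calcium fluorescence (1 cycle/s) in inducible HEK293 T-REx D2 cells after an EC80 dopamine addition that followed 180 s compound preincubation. Loss of the dopamine response indicates antagonism.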
row,Structure (SMILES),inhibition
1,Cc1ccc(CNC(=O)c2c(-c3ccc(F)cc3F)noc2C)o1,-22%
2,COc1ccc(-c2cn3nc(N4CCCC(C(=O)Nc5cc(Cl)ccc5OC)C4)sc3n2)cc1 (centres undefined),-5.35%
3,O=C(NCc1cccc(Cl)c1)C1CCN(c2nn3cc(-c4ccc(F)cc4)nc3s2)CC1,0.483%
4,COc1cc(NC(=O)Cn2c(=O)n(-c3ccccc3)c(=O)c3c4c(sc32)CCCC4)cc(OC)c1,18.5%
5,Cc1ccccc1OCc1ccc(-c2nc(C#N)c(N3CCCCC3)o2)o1,-2.28%
6,COc1ccc(CC(=O)NCC(c2ccc(N(C)C)cc2)N2CCOCC2)cc1OC (centres undefined),3.86%
7,CC1CCN(S(=O)(=O)c2ccc(NC(=O)CN3CCN(c4ccccc4)CC3)cc2)CC1,active: 59.1%
8,CCOC(=O)c1cc2c(=O)n3ccccc3nc2n(Cc2ccco2)c1=NC(=O)c1ccc(OC)cc1,4.13%
9,CC(C)COc1ccc(C(=O)Nc2scc(-c3ccc(Br)cc3)c2C(=O)OC(C)C)cc1,-9.58%
10,CSc1ccc(CNC(=O)c2ccc3c(c2)N(C)C(=O)C2CCCCN32)cc1 (centres undefined),13.9%
11,CC(=O)N1CCCc2cc(S(=O)(=O)N3CCCC(C(=O)N4CCN(c5ccccc5F)CC4)C3)ccc21 (centres undefined),-12%
12,Cc1ccc2c(c1)-c1c(cnn1CC(=O)N1CCN(c3cccc(C(F)(F)F)c3)CC1)CO2,9.85%
13,COC(=O)c1c(C)[nH]c(C(=O)/C=C/c2ccc(Cl)cc2)c1C,active: 40.8%
14,C=CCN(CC=C)C(=O)Cc1ccc(F)cc1,active: 31.1%
15,CCc1cccc(C)c1NS(=O)(=O)c1ccc2c(c1)NC(=O)C(C)C(=O)N2 (centres undefined),-11.3%
16,Cc1nc(SCC(=O)OC(C)(C)C)c2c3c(sc2n1)CCCC3,-9.67%
17,Cc1nn(S(=O)(=O)c2ccc(C(C)C)cc2)c(C)c1S(=O)(=O)N1CCCCC1,-4.42%
18,COc1ccc(CNC(=O)c2ccc(CNS(=O)(=O)c3ccc(OC)cc3)cc2)cc1,13%
19,COc1cccc(NC(=O)c2ccc3c(=O)n4nc(Nc5ccccc5OC)sc4nc3c2)c1,11.6%
20,COCCCNC(=O)c1ccc(Cn2c(=O)c3ccccc3n(Cc3ccc(C)cc3)c2=O)cc1,-16.1%

row,Structure (SMILES),inhibition
1,COCCOC(=O)Cn1nnc2sc(-c3ccccc3)cc2c1=O,23.2%
2,CCOc1ccc(Oc2ccccc2NC(=O)C2=COCCO2)cc1,active: 37.2%
3,CCOC(=O)c1ccc(NC(=O)CC2Nc3cc(C)c(C)cc3NC2=O)cc1 (centres undefined),2.44%
4,CC1CCCCN1C(=O)c1cccc(NC(=O)c2ccccc2)c1 (centres undefined),active: 36.5%
5,COc1ccc(CNC(=O)CN2C(=O)COc3ccc(S(=O)(=O)N4CCCCCC4)cc32)cc1,14.1%
6,COc1ccc(-n2c(SCC(=O)NCc3ccccc3)nc3ccsc3c2=O)cc1,26.3%
7,COC(=O)c1sccc1S(=O)(=O)N(CC(=O)Nc1cc(C)cc(C)c1)c1ccc(Cl)cc1,14.1%
8,COc1ccc(NC(=O)c2nn(C)c3c2CSc2ccc(C)cc2-3)cc1OC,-8.85%
9,Cc1ccc(C2Nc3ccccc3-n3c(-c4ccccc4)c4c(=O)n(C)c(=O)n(C)c4c32)cc1 (centres undefined),7.37%
10,COc1cccc(NC(=O)Cn2c(=O)n(Cc3nc(-c4ccccc4)no3)c(=O)c3ccccc32)c1,-2.44%
11,CCOc1ccc(-c2cc(C)n3nc(C(=O)Nc4cc(Cl)ccc4O)cc3n2)cc1,3.82%
12,CCC(=O)Nc1ccc(S(=O)(=O)NCc2cccn2Cc2cccc(C)c2)cc1,6.35%
13,COc1ccccc1/C=C(\C#N)c1nc(-c2cc3ccccc3oc2=O)cs1,-3.15%
14,COc1ccc(S(=O)(=O)NCCc2sc(-c3ccccc3)nc2C)cc1OC,13.9%
15,CCOC(=O)N1CCC(NC(=O)c2cnn(-c3ccccc3)c2C2CCN(C(=O)OC(C)(C)C)CC2)CC1,-11.1%
16,CCc1ccccc1NC(=O)CSc1ncc2c(n1)-c1ccccc1N(C)S2(=O)=O,12.2%
17,O=C(NCCC1=CCCCC1)c1ccc2c(c1)ncn2-c1cccc(Cl)c1,8.2%
18,FC(F)(F)c1ccccc1NC(=S)NC1CCN(Cc2ccccc2)CC1,active: 115%
19,Cn1c(=O)c2c(-c3ccccc3)n3c(c2n(C)c1=O)C(c1cc(Cl)ccc1O)Nc1ccccc1-3 (centres undefined),25.1%
20,O=C(CCNS(=O)(=O)c1cccc2nsnc12)Nc1ccc(F)cc1,-1.5%

row,Structure (SMILES),inhibition
1,Cc1csc2nc(-c3cccc(NC(=O)c4ccc(S(N)(=O)=O)cc4)c3)cn12,-2.74%
2,COc1ccc(-c2nc3cc(NC(=O)COc4ccc(F)cc4)ccc3o2)cc1,-5.97%
3,COc1ccc(OC)c(CNC(=O)c2cc(=O)[nH]c3ccc(S(=O)(=O)N4CCCCC4C)cc23)c1 (centres undefined),-8.12%
4,NC(=S)NNC(=O)C12CC3CC(CC(C3)C1)C2,active: 43.9%
5,Cc1ccc2cccc(NC(=O)c3ccc(-c4ccc(Cl)cc4Cl)o3)c2n1,-8.64%
6,Cc1ccc(C(=O)N2c3nc(-c4ccco4)nn3C3(CCCCC3)[C@@H]3CCCC[C@@H]32)cc1,8.24%
7,Cc1cc(Nc2ccc(C)c(Cl)c2)n2nc(-c3ccccc3)nc2n1,1.41%
8,CC1CCN(S(=O)(=O)c2cccc(C(=O)NC3CCS(=O)(=O)C3)c2)CC1 (centres undefined),14.5%
9,CCN(C(=O)C(NS(=O)(=O)c1cccc2nsnc12)c1ccccc1)c1ccccc1 (centres undefined),-10.2%
10,Cc1ccc(C)c(N2CCN(CCCNc3ncnc4onc(-c5ccc(Cl)cc5)c34)CC2)c1,15%
11,COCCCNC(=O)CCCN1C(=O)CCn2nc(-c3cn(C)c4ccccc34)cc21,-7.48%
12,COc1ccc(-c2ccnc3c2c(=O)n(C)c(=O)n3C)cc1OC,6.51%
13,Cc1ccc(NC(=O)[C@H](CSCc2ccccc2)N2Cc3ccccc3C2=O)cc1,-23.1%
14,COc1cccc(CNC(=O)Cn2c(=O)n3nc(-c4cccc(C)c4)nc3c3ccccc32)c1,15.9%
15,O=C(C1CCN(c2nnc(-n3cccc3)s2)CC1)N1CCN(Cc2ccc3c(c2)OCO3)CC1,active: 31.5%
16,O=C(OCc1nnc(-c2ccc([N+](=O)[O-])cc2)o1)C1CCN(C(=O)c2ccc(F)cc2)CC1,active: 34.7%
17,CCCCN(Cc1ccccc1)S(=O)(=O)c1ccc2c(c1)CCN2C(=O)C1CCC1,-13%
18,O=C(Cn1nc(Cc2cccnc2)c2ccccc2c1=O)N1CCN(c2ccc(F)cc2)CC1,-8.26%
19,CCCSCCCNC(=O)C1CCCN(C(=O)c2cnn(-c3ccccc3)c2-n2cccc2)C1 (centres undefined),-1.43%
